Data reported in the RNAGym collection of RNA variant scans (doi:10.7554/elife.90254).
The source gives no read counts; variants with many changes may rest on few reads.

B1: OR4K15 (parent)
chain: GUUAACGGUCAUAGGCCAUGGAAACUAGGAGCACCAUUUCGCUGCCAGUGAAGAAAUGAACAAAGAAAAUCUGGGCCAGGCAGGCAUCAAAAGAAAUAGUCUUGCGCUCAACCAGAAAGUCUGUAAUCAUUUUAAGGGUA

Variants of: B1
Assay: self-cleavage, relative activity (ratio to wild type); higher = more cleavage; in vitro, sequencing; the parent is a self-cleaving ribozyme

| Variant | self-cleavage |
| --- | --- |
| U37C G48A A59G A110G | 0.04 |
| A33U U97C U139C | 1.71 |
| A36U U37A A78U A82G A116G | 0.05 |
| U37C C61A A63G A67G | 1.49 |
| A36G U72C A90G A114U A117G | 0.04 |
| A36U A51G A91G A116U | 0 |
| C34U U57C A89U A111G U122C G123A | 0 |
| A36G U49G U102C A111G | 0 |
| A36G A47C A118G | 0.76 |
| A33U A78G A94G U108A C113A A114G | 0.01 |
| A33U U37A U39C A126U | 1.27 |
| A33U A78G A82G U124C | 0.11 |
| C34A U49C A89G A96U | 0.83 |
| A36U A91G A110U A126G | 0.84 |
| U37C A90G A92U | 0.78 |
| A33U A95G C107G A117G | 0.02 |
| C35U A54G U127C | 1.23 |
| A36U U70C C105U | 0.12 |
| U37C C42U A54G A95U | 0.74 |
| A36G A56G A82G U127C | 0.11 |
| A36C A68C A118G A135G U139A | 0.75 |

| Variant | self-cleavage |
| --- | --- |
| U37C A82G U132C | 0.49 |
| U37A U70C U127C | 0.85 |
| A36G U43A A114U U131C | 0.09 |
| C35U U43C U49C A117U U131C | 0.44 |
| U37C A95G A118G | 1.42 |
| U37C U43A A47U A51G A66G | 1.19 |
| C35A A54G A96U | 0.98 |
| U37A A59G A95G | 2.76 |
| A36C A62G A94G C109A | 0.35 |
| A33G U72C A98G G99A | 0.08 |
| A36U C61U A89G U102C | 2.6 |
| U37A A62C A82G A95G A117G A125G A129G | 0.03 |
| A36U A47U U57C U100C | 1.83 |
| C34A A66U C105A | 0.01 |
| U37C A63G U72A A91G A94G A117G | 0.18 |
| U37C U39C A68G A94G | 1.2 |
| A33U G115U A140U | 0.08 |
| A33U U57G U103C | 0.68 |
| U37C A54G A59C | 0.95 |
| A36G U72C A96U A98G | 0.19 |
| A36G U49C A52C | 1.67 |

| Variant | self-cleavage |
| --- | --- |
| A36G A55G U100C A110G | 0.15 |
| A36G A59G A82C U102C U103C A126G | 0.03 |
| U37C A54G U57A A129U | 1.64 |
| U37C A63G U100C U102C | 2.39 |
| A36G A69G A86G | 2.46 |
| U37C G53U U132C | 1.15 |
| U37C U38C U43C A47G | 0.66 |
| A36G G44A U49C A59G A66G A69G U87C | 0.23 |
| A33U U39C A64C G79U | 0.19 |
| U37C A86G A91G A118G | 0.31 |
| A36U U43A A59G | 1.5 |
| A33G U130C U131C | 0.24 |
| A33G U57C A64G | 0.27 |
| U37C U43C A62U A92G | 1.09 |
| A36G G53A A91G U100C | 1.99 |
| A36U A89U U130C | 1.08 |
| A33U A64G U122A A126G U132A | 0.78 |
| U37C C77U A82G U120C | 1.29 |
| A36U A59G U127C | 0.94 |
| U37A U38C A95G | 1.81 |
| A36C A52C A135G | 2.47 |

| Variant | self-cleavage |
| --- | --- |
| U37C A62U U72A A91G U97C | 0.04 |
| A33G U70C A78U A92U | 0.13 |
| U37C A59G U133A | 1.41 |
| U37C A51U A55G A78U U102C A114G | 0.06 |
| A36G U43C U57A A110U | 0.58 |
| A36U G41U A54G U127A | 2.16 |
| A36G U108C U132C | 0.01 |
| U37C A60G G104A A110G A111C | 0.02 |
| U37C A56G A98G | 0.96 |
| A36U U49C A60G U100C A117G | 2.64 |
| A33U A96G A111G | 0.04 |
| U37C A51U A60G A86G A116G | 0.15 |
| C35U A47U A55G U127C U131C | 0.35 |
| U37C U39C A64G A92G | 0.85 |
| A36G A98U C113U | 0.22 |
| U37C A51G A91G U103C | 0.71 |
| A33G U70C U103C U122A | 0.05 |
| U37C A54G A55G A86G A91G | 0.08 |
| A36C U72A A118G | 0.11 |
| U37C A51G A86G A92G | 0.96 |
| U37C A47G A111G A135G | 0.01 |
